Laboratory results published in the supplement of paper PMC4466236.
In all, about 33,000 sequences were measured (“E-score (dimensionless, -0.5 to 0.5)”: median about -0.058, highest 2% from about 0.35 on). The list shows a part of the results.

system: MvaT; assay: PBM 8-mer E-score (mean of HK and ME arrays) (E-score (dimensionless, -0.5 to 0.5)); higher = stronger relative binding preference; most listed sequences are background and not binding sites
How it was run: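 Reported values are rank-based E-scores, taken as the mean of two universal arrays and parsed with a custom script. Each 8-mer score falls between -0.5 and 0.5. The arrays, ME and HK, were double-stranded 60-mers with a constant 25-mer primer region and a variable 35-mer region covering all 8-mers. They were probed, by an earlier protocol, with full-length P. aeruginosa MvaT carrying an N-terminal glutathione S-transferase fusion.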

Row | Sequence | PBM 8-mer E-score
1 | TATACATA | 0.389
2 | CGAAGCAC | -0.198
3 | AAAACTGG | 0.0776
4 | ACCTCGCC | -0.118
5 | CAATGTTA | 0.246
6 | CGGGACAC | -0.176
7 | CACACAAG | 0.0519
8 | AACTAATT | 0.401
9 | CGTCGTTA | 0.0543
10 | GCTTTCTA | -0.0117
11 | GGCTGTTA | 0.0673
12 | GTAGAACA | -0.0137
13 | GGCGACCA | -0.192
14 | CTTCATCA | -0.0943
15 | CGATAGGC | -0.128
16 | ATCAGGGC | -0.178
17 | GCGTGCGA | -0.0466
18 | GGAGGAAA | -0.193
19 | GTGCTGCA | -0.102
20 | CCCGGAGA | -0.204
21 | CGTGAAAA | 0.176
22 | GCTGACGA | -0.28
23 | AGGTATCC | -0.0858
24 | ACATACAC | 0.214
25 | CAAGAATG | -0.0553

Row | Sequence | PBM 8-mer E-score
26 | GATAACAC | 0.242
27 | CAGAACTC | -0.0958
28 | AATGATGG | 0.0399
29 | AATTCCCG | 0.153
30 | AGGGACTA | -0.23
31 | ATGGTGAC | -0.189
32 | CCCTATAG | -0.161
33 | GTAGTAAC | 0.214
34 | AACGCCGC | -0.172
35 | CTTACAAC | 0.15
36 | CTGAGCAG | -0.334
37 | CGTTTACC | -0.036
38 | GATCCAAC | -0.175
39 | AGAATATG | 0.277
40 | GCCGTCAC | -0.163
41 | CTATTCTA | 0.131
42 | AACTTCCT | 0.0455
43 | CAGTAGAA | -0.097
44 | CGGGTGAC | -0.217
45 | GCGACGCC | -0.28
46 | ACTGGGGG | -0.221
47 | AATTGCGG | 0.154
48 | GTTCGAGA | 0.00197
49 | ATAAAGCC | -0.0518
50 | CACAAGGA | -0.13

Row | Sequence | PBM 8-mer E-score
51 | CCTAGGGA | -0.298
52 | GAGAATGC | -0.17
53 | CCCCAAGC | -0.253
54 | CGGCCGAG | -0.0834
55 | ACAACGCC | -0.0268
56 | TCAATAGA | -0.00661
57 | TACATAAA | 0.307
58 | GAGCGCCC | -0.226
59 | CACAATTC | 0.0962
60 | AGCGAGTC | -0.251
61 | AGTGCAAG | 0.136
62 | AACCGAGC | -0.141
63 | ATGGCCTC | -0.323
64 | GCCCACGA | -0.205
65 | CTGGCAAA | -0.0275
66 | ATCTTCGA | 0.0255
67 | AATACCCG | 0.231
68 | ACTATGTA | 0.304
69 | ATGACTTG | 0.119
70 | ACTCCAAT | 0.172
71 | GCGTGAAA | 0.0677
72 | TCCTCCAA | -0.188
73 | CTGAACTC | -0.0636
74 | ATGACTGC | -0.107
75 | GAGTGTGC | -0.0286

Row | Sequence | PBM 8-mer E-score
76 | GTGCGATA | 0.0548
77 | GCTGGACA | -0.23
78 | AAAAAACC | 0.116
79 | AGAGCCAA | -0.232
80 | TGGGACCA | -0.28
81 | AAGTGCCG | -0.0563
82 | CTAAGACC | -0.0719
83 | CTCCATAA | 0.0367
84 | AGTGCCAC | -0.0989
85 | AAAACCGG | -0.0259
86 | AAGCTGGG | -0.0779
87 | AGATGTCC | -0.14
88 | CAGGAAGC | -0.181
89 | GCGTGCAA | -0.0595
90 | ACTAAATG | 0.242
91 | GAGTAAAA | 0.192
92 | ACCAAGAC | -0.0948
93 | ATCCGAAA | 0.125
94 | GGCAGGAA | -0.137
95 | GTACGGTA | 0.00151
96 | CATATGAG | 0.144
97 | TAGCCTAA | -0.00611
98 | GTAGGGAC | -0.235
99 | ACTGGTGC | 0.0352
100 | GAGGCGGC | -0.248

Row | Sequence | PBM 8-mer E-score
101 | TCAATTCA | 0.197
102 | GCCTCCTA | -0.174
103 | GGGCGAGA | -0.0425
104 | CCCTTCCC | -0.198
105 | CGCTGAAA | 0.056
106 | AGCTATAT | 0.328
107 | AGTCTCCC | -0.184
108 | AGCGGACG | -0.163
109 | CTCTTCGA | -0.216
110 | CCGCGAGG | -0.328
111 | CCAACGGC | -0.262
112 | CGGCGGTA | -0.0182
113 | GGGAAGGA | -0.231
114 | GTTATAGA | 0.222
115 | AAAAAATG | 0.0805
116 | ATGGAGCG | -0.275
117 | ATCTAACA | 0.16
118 | GGAGTCCC | -0.244
119 | CCTATACG | -0.0414
120 | TAGTTCAA | 0.249
121 | AGTGGTCG | -0.154
122 | TAGTGAGA | 0.0304
123 | AACTCACG | -0.066
124 | CGTGAATA | 0.0728
125 | GACCTTAC | -0.126

Row | Sequence | PBM 8-mer E-score
126 | ATTGGCGG | -0.11
127 | ACCCCAAG | -0.232
128 | ATCGGACA | -0.0345
129 | CGGAAGCA | -0.171
130 | CCCTATAC | -0.0558
131 | CCCGGTGC | -0.244
132 | AACGTCCA | -0.194
133 | AAGATCTA | 0.0563
134 | CGGATTAG | 0.0243
135 | TCCGCAAA | -0.18
136 | GCGGCTGA | -0.207
137 | ATCTCTGG | -0.102
138 | CGCTGGTC | -0.21
139 | AGGTGTAA | 0.0684
140 | ATCGCGAT | 0.023
141 | TGGTGACA | -0.0886
142 | CCAGACAG | -0.196
143 | GAGGCGGA | -0.264
144 | CCAACAGC | -0.101
145 | ATCTGGCG | -0.103
146 | ACTCGTAA | 0.223
147 | CCTGTTAG | -0.0155
148 | CATATATC | 0.398
149 | AAGTACCC | 0.0709
150 | AAGGTACT | 0.038

Row | Sequence | PBM 8-mer E-score
151 | ACTATCAC | 0.234
152 | GGGGCCGA | -0.197
153 | CTGTGGCA | -0.206
154 | TAGATCCA | 0.0425
155 | CATAGTAA | 0.282
156 | CCTTTGAA | -0.112
157 | CGTGATTC | -0.102
158 | ACGGGGGC | -0.433
159 | TCGCCACA | -0.00922
160 | CGCCACAA | 0.0207
161 | ACTCCCCT | -0.175
162 | CAAAGTGC | -0.159
163 | GATCCTAC | -0.3
164 | CGAGACGC | -0.318
165 | AATACATT | 0.374
166 | AGGAGCAT | -0.217
167 | AGTTAACC | 0.142
168 | AAACGCTT | 0.0352
169 | TCTTAACA | 0.0603
170 | CACTTGAA | 0.0218
171 | CGCATAGA | -0.151
172 | CAGTCAAA | 0.103
173 | ACAGGCAC | -0.193
174 | CCCGATGA | -0.2
175 | TATGGCGA | 0.0492

Row | Sequence | PBM 8-mer E-score
176 | ATAGAGAA | 0.199
177 | AGATAAGA | 0.0332
178 | CTTACAGA | -0.0453
179 | AGCGCAGC | -0.322
180 | CAATGCAG | -0.057
181 | CGTGACTA | -0.0475
182 | CTAATCGA | -0.0806
183 | AATACCGA | 0.126
184 | ACTCTGAA | 0.00253
185 | ACAATGTC | -0.0401
186 | AAAAGTGG | -0.00486
187 | CCCTGCGG | -0.218
188 | AACACTCT | -0.0432
189 | ATTACTCA | 0.192
190 | ACTATGCC | 0.0442
191 | CCAAATGC | 0.0103
192 | AGTACTAT | 0.236
193 | CGCTATAA | 0.192
194 | TCGGGTCA | -0.155
195 | AGCCAGTG | -0.203
196 | ATCCGCCG | -0.181
197 | AGTTGTTA | 0.262
198 | AAGCGTGT | -0.0993
199 | CAGACGAG | -0.0992
200 | CGCTTAAC | 0.0253

Row | Sequence | PBM 8-mer E-score
201 | GGGCCACA | -0.0584
202 | ATTCGCGC | -0.09
203 | CCGTCGTC | -0.0566
204 | CCGTATCG | -0.15
205 | CCGCGCAG | -0.274
206 | AAGGTCCA | -0.117
207 | GTGTTGAA | 0.0263
208 | GACCGATC | -0.158
209 | ATTGAATG | 0.188
210 | CAAGTACG | -0.0518
211 | AGTCCTCA | -0.0791
212 | ATCCTGCA | -0.0152
213 | CGCAGACG | -0.185
214 | AGAAGCCC | -0.176
215 | CATAGGTC | -0.177
216 | GGGCCCCA | -0.209
217 | CTTACATA | 0.256
218 | CAATCGTC | -0.0558
219 | ACGAAGGG | -0.289
